Measured values taken from patent US20260062705A1 (UNIVERSITY OF FLORIDA RESEARCH FOUNDATION, published 2026).

Biological target: PRKDC (human, UniProt P78527)
Experiment: reciprocal co-immunoprecipitation and western blot, HEY and OVCAR8 cell lysates
Procedure: FIG. 6A is the results of immunoprecipitation with FAP and PRKDC antibodies. HEY and OVCAR8 cells were immunoprecipitated with either PRKDC or FAP antibody and the immunoprecipitates were subjected to western blot to detect FAP or PRKDC respectively. All blots derived from the same experiment and were processed in parallel.
Immunoprecipitation and mass spectrometry: Samples for co-immunoprecipitation and mass spectrometry were prepared using Thermo Scientific™ Pierce™ Co-Immunoprecipitation Kit (Cat #PI26149) following manufacturer's protocol. For mass spectrometry, samples were precipitated with anti-FAB polyclonal antibody (R&D systems, Cat #AF3715) and then sent to UF core for analysis on TSQ Altis™ Triple Quadrupole Mass Spectrometer (Thermo Fisher). For co-immunoprecipitation, samples were either precipitated with anti-FAB polyclonal antibody or goat anti-PRKDC polyclonal antibody (Abcam, Cat #ab168854).for 2 h and further with TrueBlot™ anti-Rabbit Ig Beads or TrueBlot™ anti-Goat Ig Beads ((Rockland, Limerick, PA). After several washes, beads were boiled and subjected to western blot analysis.

Chain of UniProt P78527 (P78527 whole entry): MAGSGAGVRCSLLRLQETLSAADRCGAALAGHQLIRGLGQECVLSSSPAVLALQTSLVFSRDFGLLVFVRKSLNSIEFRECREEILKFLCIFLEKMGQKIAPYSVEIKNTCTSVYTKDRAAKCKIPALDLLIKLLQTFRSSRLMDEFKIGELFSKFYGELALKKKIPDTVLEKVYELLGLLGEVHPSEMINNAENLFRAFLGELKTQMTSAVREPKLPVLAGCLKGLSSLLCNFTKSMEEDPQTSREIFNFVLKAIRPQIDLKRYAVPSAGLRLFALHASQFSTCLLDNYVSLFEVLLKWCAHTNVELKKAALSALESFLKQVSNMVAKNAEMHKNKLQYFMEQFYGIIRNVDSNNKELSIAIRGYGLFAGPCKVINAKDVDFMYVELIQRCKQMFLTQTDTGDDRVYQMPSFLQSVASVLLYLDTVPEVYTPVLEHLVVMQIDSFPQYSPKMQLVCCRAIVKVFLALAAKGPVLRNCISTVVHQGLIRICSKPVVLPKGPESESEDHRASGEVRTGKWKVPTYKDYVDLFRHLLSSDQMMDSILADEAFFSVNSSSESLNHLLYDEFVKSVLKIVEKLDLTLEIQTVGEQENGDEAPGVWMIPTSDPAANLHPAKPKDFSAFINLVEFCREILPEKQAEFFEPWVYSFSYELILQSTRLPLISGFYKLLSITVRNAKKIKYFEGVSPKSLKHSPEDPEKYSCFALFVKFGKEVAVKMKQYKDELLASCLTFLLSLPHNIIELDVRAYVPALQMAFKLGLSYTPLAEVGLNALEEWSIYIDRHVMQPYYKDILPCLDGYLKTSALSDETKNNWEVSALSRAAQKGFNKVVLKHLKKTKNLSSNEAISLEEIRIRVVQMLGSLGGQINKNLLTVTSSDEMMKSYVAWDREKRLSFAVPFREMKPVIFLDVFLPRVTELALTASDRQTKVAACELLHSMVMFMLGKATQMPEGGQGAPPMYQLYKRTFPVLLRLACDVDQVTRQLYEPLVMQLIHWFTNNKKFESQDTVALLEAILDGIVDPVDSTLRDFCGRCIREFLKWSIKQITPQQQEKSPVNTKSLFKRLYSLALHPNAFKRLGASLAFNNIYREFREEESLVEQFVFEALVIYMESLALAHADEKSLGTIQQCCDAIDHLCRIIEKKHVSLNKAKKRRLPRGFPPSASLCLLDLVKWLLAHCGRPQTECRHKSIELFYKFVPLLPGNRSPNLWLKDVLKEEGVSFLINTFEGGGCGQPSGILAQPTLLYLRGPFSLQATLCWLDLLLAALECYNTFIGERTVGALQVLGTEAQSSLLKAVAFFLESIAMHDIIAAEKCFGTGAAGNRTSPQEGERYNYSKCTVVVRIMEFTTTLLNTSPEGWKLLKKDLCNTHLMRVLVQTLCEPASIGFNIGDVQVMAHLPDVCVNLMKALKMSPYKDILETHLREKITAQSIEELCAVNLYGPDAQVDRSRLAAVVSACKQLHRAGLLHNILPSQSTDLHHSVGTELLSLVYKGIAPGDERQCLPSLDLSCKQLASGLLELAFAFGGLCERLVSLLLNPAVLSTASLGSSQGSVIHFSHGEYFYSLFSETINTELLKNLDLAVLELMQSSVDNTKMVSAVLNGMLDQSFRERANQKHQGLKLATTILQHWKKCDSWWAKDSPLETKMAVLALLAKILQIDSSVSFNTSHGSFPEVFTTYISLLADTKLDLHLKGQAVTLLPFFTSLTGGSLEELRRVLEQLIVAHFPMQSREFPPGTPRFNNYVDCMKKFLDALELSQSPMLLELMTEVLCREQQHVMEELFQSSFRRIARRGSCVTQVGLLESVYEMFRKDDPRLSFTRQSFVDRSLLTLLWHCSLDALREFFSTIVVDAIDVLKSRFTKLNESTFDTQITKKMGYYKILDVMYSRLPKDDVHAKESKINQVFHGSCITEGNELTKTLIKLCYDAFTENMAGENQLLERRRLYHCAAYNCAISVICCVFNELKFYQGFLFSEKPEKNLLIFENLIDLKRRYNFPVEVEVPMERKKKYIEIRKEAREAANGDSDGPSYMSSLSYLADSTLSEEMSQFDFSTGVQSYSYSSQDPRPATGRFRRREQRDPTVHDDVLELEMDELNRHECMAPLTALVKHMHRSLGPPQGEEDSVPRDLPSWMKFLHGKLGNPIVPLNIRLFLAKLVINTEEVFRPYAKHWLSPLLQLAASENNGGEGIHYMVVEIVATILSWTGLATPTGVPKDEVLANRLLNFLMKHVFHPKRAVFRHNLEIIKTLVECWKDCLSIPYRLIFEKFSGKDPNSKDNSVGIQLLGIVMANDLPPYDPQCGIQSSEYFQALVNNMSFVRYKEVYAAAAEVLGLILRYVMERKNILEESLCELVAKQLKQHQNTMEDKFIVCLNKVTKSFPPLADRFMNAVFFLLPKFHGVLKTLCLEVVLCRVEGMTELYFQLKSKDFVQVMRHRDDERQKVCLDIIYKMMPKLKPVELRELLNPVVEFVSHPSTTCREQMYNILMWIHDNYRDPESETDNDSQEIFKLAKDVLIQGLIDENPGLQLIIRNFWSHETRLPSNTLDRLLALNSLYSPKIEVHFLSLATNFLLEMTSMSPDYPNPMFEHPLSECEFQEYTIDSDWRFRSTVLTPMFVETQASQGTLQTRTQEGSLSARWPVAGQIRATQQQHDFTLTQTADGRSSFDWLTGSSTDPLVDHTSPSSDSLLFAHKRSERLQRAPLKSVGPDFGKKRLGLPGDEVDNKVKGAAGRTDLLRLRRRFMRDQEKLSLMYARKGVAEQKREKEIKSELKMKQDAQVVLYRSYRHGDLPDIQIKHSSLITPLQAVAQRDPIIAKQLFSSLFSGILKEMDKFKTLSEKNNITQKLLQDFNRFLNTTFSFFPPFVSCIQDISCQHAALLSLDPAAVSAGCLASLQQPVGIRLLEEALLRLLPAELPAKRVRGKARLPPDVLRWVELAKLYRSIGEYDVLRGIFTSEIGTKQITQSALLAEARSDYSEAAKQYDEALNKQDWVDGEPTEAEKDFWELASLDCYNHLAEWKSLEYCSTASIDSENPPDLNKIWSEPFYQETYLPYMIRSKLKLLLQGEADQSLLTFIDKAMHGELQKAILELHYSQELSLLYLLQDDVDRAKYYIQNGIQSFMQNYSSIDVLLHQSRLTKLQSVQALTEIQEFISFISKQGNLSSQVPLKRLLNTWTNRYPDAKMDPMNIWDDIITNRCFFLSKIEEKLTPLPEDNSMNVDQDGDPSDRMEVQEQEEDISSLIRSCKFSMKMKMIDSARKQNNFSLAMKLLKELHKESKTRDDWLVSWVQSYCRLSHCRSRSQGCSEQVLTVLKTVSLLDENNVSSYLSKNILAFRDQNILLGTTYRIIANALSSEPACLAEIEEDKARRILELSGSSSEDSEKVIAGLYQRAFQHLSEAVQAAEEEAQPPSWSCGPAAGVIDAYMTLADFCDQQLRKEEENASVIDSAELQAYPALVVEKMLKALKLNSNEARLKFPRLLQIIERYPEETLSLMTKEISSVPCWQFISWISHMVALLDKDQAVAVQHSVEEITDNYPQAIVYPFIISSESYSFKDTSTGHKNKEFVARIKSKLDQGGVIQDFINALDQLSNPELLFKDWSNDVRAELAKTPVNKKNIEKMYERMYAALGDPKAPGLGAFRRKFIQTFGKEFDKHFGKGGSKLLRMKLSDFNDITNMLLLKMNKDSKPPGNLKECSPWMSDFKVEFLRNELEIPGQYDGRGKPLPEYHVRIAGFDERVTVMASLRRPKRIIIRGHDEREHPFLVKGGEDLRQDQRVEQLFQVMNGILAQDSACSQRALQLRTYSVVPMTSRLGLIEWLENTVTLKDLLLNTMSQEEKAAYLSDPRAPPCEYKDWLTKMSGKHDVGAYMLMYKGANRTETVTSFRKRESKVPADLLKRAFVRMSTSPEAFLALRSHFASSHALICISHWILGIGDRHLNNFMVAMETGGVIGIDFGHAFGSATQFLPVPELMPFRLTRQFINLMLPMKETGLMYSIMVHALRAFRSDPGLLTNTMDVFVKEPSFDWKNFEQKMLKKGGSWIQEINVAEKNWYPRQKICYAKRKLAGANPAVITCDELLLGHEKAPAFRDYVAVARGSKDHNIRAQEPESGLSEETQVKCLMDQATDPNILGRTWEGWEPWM

binding result: binds
B1: fibroblast activation protein alpha (enzyme)
chain: not shown
notes: Endogenous FAP of HEY and OVCAR8 cells (immunoprecipitates, lipid raft isolates, stained cells); also called FAP
